# According to the supplement of paper PMC8728848:
# This is one part of the list.
# Key:
# Experiment in all cases: glycan array binding signal (z-score within array); higher = stronger binding
# Conditions in all cases: glycan notation: IUPAC condensed, linker removed
# [1] = target: Fuc(a1-2)Gal
# Summary of the method: (§1)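 Glycan array data were curated from 3228 arrays in the Consortium for Functional Glycomics database and kept only where the protein sequence was available. Glycan names were converted to IUPAC-condensed notation, and columns mapping to the same glycan were averaged. The binding signal is a within-array Z-score, averaged across arrays of the same protein sequence at different concentrations or buffers and across linkers. Negative Z-scores can be read as non-binding.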
# [2] = target: Fuc(a1-2)Gal(b1-3)GalNAc
# Summary of the method: as §1
# [3] = target: Fuc(a1-2)Gal(b1-3)GalNAc(a1-3)[Fuc(a1-2)]Gal(b1-4)Glc
# Summary of the method: as §1
# [4] = target: Fuc(a1-2)Gal(b1-3)GalNAc(a1-3)[Fuc(a1-2)]Gal(b1-4)GlcNAc
# Summary of the method: as §1
# [5] = target: Fuc(a1-2)Gal(b1-3)GalNAc(b1-3)Gal
# Summary of the method: as §1
# [6] = target: Fuc(a1-2)Gal(b1-3)GalNAc(b1-3)Gal(a1-4)Gal(b1-4)Glc
# Summary of the method: as §1
# [7] = target: Fuc(a1-2)Gal(b1-3)GalNAc(b1-4)[Neu5Ac(a2-3)]Gal(b1-4)Glc
# Summary of the method: as §1
# [8] = target: Fuc(a1-2)Gal(b1-3)GlcNAc
# Summary of the method: as §1
# [9] = target: Fuc(a1-2)Gal(b1-3)GlcNAc(b1-2)Man(a1-3)[Fuc(a1-2)Gal(b1-3)GlcNAc(b1-2)Man(a1-6)]Man(b1-4)GlcNAc(b1-4)GlcNAc
# Summary of the method: as §1
# [10] = target: Fuc(a1-2)Gal(b1-3)GlcNAc(b1-2)Man(a1-3)[Fuc(a1-2)Gal(b1-3)GlcNAc(b1-2)Man(a1-6)]Man(b1-4)GlcNAc(b1-4)[Fuc(a1-6)]GlcNAc
# Summary of the method: as §1
# [11] = target: Fuc(a1-2)Gal(b1-3)GlcNAc(b1-3)Gal(b1-4)Glc
# Summary of the method: as §1
# [12] = target: Fuc(a1-2)Gal(b1-3)GlcNAc(b1-3)GalNAc
# Summary of the method: as §1
# [13] = target: Fuc(a1-2)Gal(b1-3)GlcNAc(b1-3)[Fuc(a1-2)Gal(b1-3)GlcNAc(b1-6)]GalNAc
# Summary of the method: as §1
# [14] = target: Fuc(a1-2)Gal(b1-3)GlcNAc(b1-3)[Gal(b1-4)GlcNAc(b1-6)]Gal(b1-4)Glc
# Summary of the method: as §1
# [15] = target: Fuc(a1-2)Gal(b1-3)GlcNAc(b1-3)[Neu5Ac(a2-6)Gal(b1-4)GlcNAc(b1-6)]Gal(b1-4)Glc
# Summary of the method: as §1
# [16] = target: Fuc(a1-2)Gal(b1-3)GlcNAc6S
# Summary of the method: as §1
# [17] = target: Fuc(a1-2)Gal(b1-3)[Fuc(a1-4)]GlcNAc
# Summary of the method: as §1
# [18] = target: Fuc(a1-2)Gal(b1-3)[Fuc(a1-4)]GlcNAc(b1-2)Man(a1-3)[Fuc(a1-2)Gal(b1-3)[Fuc(a1-4)]GlcNAc(b1-2)Man(a1-3)]Man(b1-4)GlcNAc(b1-4)GlcNAc
# Summary of the method: as §1
# [19] = target: Fuc(a1-2)Gal(b1-3)[Fuc(a1-4)]GlcNAc(b1-2)Man(a1-3)[Fuc(a1-2)Gal(b1-3)[Fuc(a1-4)]GlcNAc(b1-2)Man(a1-6)]Man(b1-4)GlcNAc(b1-4)[Fuc(a1-6)]GlcNAc(b1-4)[Fuc(a1-6)]GlcNAc
# Summary of the method: as §1
# [20] = target: Fuc(a1-2)Gal(b1-3)[Fuc(a1-4)]GlcNAc(b1-3)[Fuc(a1-3)[Gal(b1-4)]GlcNAc(b1-6)]Gal(b1-4)Glc
# Summary of the method: as §1
# [21] = target: Fuc(a1-2)Gal(b1-3)[Fuc(a1-4)]GlcNAc(b1-3)[Gal(b1-4)GlcNAc(b1-6)]Gal(b1-4)Glc
# Summary of the method: as §1
# [22] = target: Fuc(a1-2)Gal(b1-4)Fuc(a1-3)]GlcNAc(b1-2)Man(a1-3)[Fuc(a1-2)Gal(b1-4)[Fuc(a1-3)]GlcNAc(b1-2)Man(a1-6)]Man(b1-4)GlcNAc(b1-4)GlcNAc
# Summary of the method: as §1
# [23] = target: Fuc(a1-2)Gal(b1-4)Glc
# Summary of the method: as §1
# [24] = target: Fuc(a1-2)Gal(b1-4)Glc6S
# Summary of the method: as §1
# [25] = target: Fuc(a1-2)Gal(b1-4)GlcNAc
# Summary of the method: as §1
# [26] = target: Fuc(a1-2)Gal(b1-4)GlcNAc(b1-2)Man
# Summary of the method: as §1
# [27] = target: Fuc(a1-2)Gal(b1-4)GlcNAc(b1-2)Man(a1-3)[Fuc(a1-2)Gal(b1-4)GlcNAc(b1-2)Man(a1-6)]Man(b1-4)GlcNAc(b1-4)GlcNAc
# Summary of the method: as §1
# [28] = target: Fuc(a1-2)Gal(b1-4)GlcNAc(b1-2)Man(a1-3)[Fuc(a1-2)Gal(b1-4)GlcNAc(b1-2)Man(a1-6)]Man(b1-4)GlcNAc(b1-4)[Fuc(a1-6)]GlcNAc
# Summary of the method: as §1
# [29] = target: Fuc(a1-2)Gal(b1-4)GlcNAc(b1-2)[Fuc(a1-2)Gal(b1-4)GlcNAc(b1-4)]Man(a1-3)[Fuc(a1-2)Gal(b1-4)GlcNAc(b1-2)Man(a1-6)]Man(b1-4)GlcNAc(b1-4)GlcNAc
# Summary of the method: as §1
# [30] = target: Fuc(a1-2)Gal(b1-4)GlcNAc(b1-3)Gal(b1-4)GlcNAc
# Summary of the method: as §1
# [31] = target: Fuc(a1-2)Gal(b1-4)GlcNAc(b1-3)Gal(b1-4)GlcNAc(b1-2)Man(a1-3)[Fuc(a1-2)Gal(b1-4)GlcNAc(b1-3)Gal(b1-4)GlcNAc(b1-2)Man(a1-6)]Man(b1-4)GlcNAc(b1-4)GlcNAc
# Summary of the method: as §1
# [32] = target: Fuc(a1-2)Gal(b1-4)GlcNAc(b1-3)Gal(b1-4)GlcNAc(b1-3)Gal(b1-4)GlcNAc
# Summary of the method: as §1
# [33] = target: Fuc(a1-2)Gal(b1-4)GlcNAc(b1-3)GalNAc
# Summary of the method: as §1
# [34] = target: Fuc(a1-2)Gal(b1-4)GlcNAc(b1-3)[Fuc(a1-2)Gal(b1-4)GlcNAc(b1-6)]GalNAc
# Summary of the method: as §1
# [35] = target: Fuc(a1-2)Gal(b1-4)GlcNAc(b1-3)[Fuc(a1-3)[Gal(b1-4)]GlcNAc(b1-6)]Gal(b1-4)Glc
# Summary of the method: as §1
# [36] = target: Fuc(a1-2)Gal(b1-4)GlcNAc(b1-6)GalNAc
# Summary of the method: as §1
# [37] = target: Fuc(a1-2)Gal(b1-4)GlcNAc6S
# Summary of the method: as §1
# [38] = target: Fuc(a1-2)Gal(b1-4)[Fuc(a1-3)]GlcNAc
# Summary of the method: as §1
# [39] = target: Fuc(a1-2)Gal(b1-4)[Fuc(a1-3)]GlcNAc(b1-2)Man(a1-3)[Fuc(a1-2)Gal(b1-4)[Fuc(a1-3)]GlcNAc(b1-2)Man(a1-6)]Man(b1-4)GlcNAc(b1-4)[Fuc(a1-6)]GlcNAc
# Summary of the method: as §1
# [40] = target: Fuc(a1-2)Gal(b1-4)[Fuc(a1-3)]GlcNAc(b1-2)[Fuc(a1-2)Gal(b1-4)[Fuc(a1-3)]GlcNAc(b1-4)]Man(a1-3)[Fuc(a1-2)Gal(b1-4)[Fuc(a1-3)]GlcNAc(b1-2)Man(a1-6)]Man(b1-4)GlcNAc(b1-4)GlcNAc
# Summary of the method: as §1
# [41] = target: Fuc(a1-2)Gal(b1-4)[Fuc(a1-3)]GlcNAc(b1-3)Gal(b1-4)[Fuc(a1-3)]GlcNAc
# Summary of the method: as §1
# [42] = target: Fuc(a1-2)Gal(b1-4)[Fuc(a1-3)]GlcNAc(b1-3)Gal(b1-4)[Fuc(a1-3)]GlcNAc(b1-3)Gal(b1-4)[Fuc(a1-3)]GlcNAc
# Summary of the method: as §1
# [43] = target: Fuc(a1-2)Gal(b1-4)[Fuc(a1-3)]GlcNAc(b1-3)GalNAc
# Summary of the method: as §1
# [44] = target: Fuc(a1-2)Gal(b1-4)[Fuc(a1-3)]GlcNAc(b1-3)[Neu5Ac(a2-6)Gal(b1-4)GlcNAc(b1-6)]Gal(b1-4)Glc
# Summary of the method: as §1
# [45] = target: Fuc(a1-2)Gal3S(b1-4)GlcNAc
# Summary of the method: as §1
binder,measurement,setting,value
"HBHA-Rv (Mycobacterium tuberculosum), P0A5P6 (protein) MAENSNIDDIKAPLLAALGAADLALATVNELITNLRERAEETRTDTRSRVEESRARLTKLQEDLPEQLTELREKFTAEELRKAAEGYLEAATSRYNELVERGEAALERLRSQQSFEEVSARAEGYVDQAVELTQEALGTVASQTRAVGERAAKLVGIELPKKAAPAKKAAPAKKAAPAKKAAAKKAPAKKAAAKKVTQK",glycan array binding signal (z-score),[1],0.953
same,glycan array binding signal (z-score),[2],0.448
same,glycan array binding signal (z-score),[3],-0.113
same,glycan array binding signal (z-score),[4],-0.332
same,glycan array binding signal (z-score),[5],-0.092
same,glycan array binding signal (z-score),[6],-0.064
same,glycan array binding signal (z-score),[7],0.114
same,glycan array binding signal (z-score),[8],0.221
same,glycan array binding signal (z-score),[9],-0.429
same,glycan array binding signal (z-score),[10],-0.319
same,glycan array binding signal (z-score),[11],0.242
same,glycan array binding signal (z-score),[12],-0.351
same,glycan array binding signal (z-score),[13],-0.45
same,glycan array binding signal (z-score),[14],-0.453
same,glycan array binding signal (z-score),[15],0.025
same,glycan array binding signal (z-score),[16],-0.269
same,glycan array binding signal (z-score),[17],-0.401
same,glycan array binding signal (z-score),[18],-0.206
same,glycan array binding signal (z-score),[19],0.157
same,glycan array binding signal (z-score),[20],-0.277
same,glycan array binding signal (z-score),[21],-0.426
same,glycan array binding signal (z-score),[22],-0.262
same,glycan array binding signal (z-score),[23],-0.208
same,glycan array binding signal (z-score),[24],-0.121
same,glycan array binding signal (z-score),[25],0.109
same,glycan array binding signal (z-score),[26],-0.196
same,glycan array binding signal (z-score),[27],-0.367
same,glycan array binding signal (z-score),[28],-0.419
same,glycan array binding signal (z-score),[29],-0.447
same,glycan array binding signal (z-score),[30],-0.394
same,glycan array binding signal (z-score),[31],1.25
same,glycan array binding signal (z-score),[32],0.078
same,glycan array binding signal (z-score),[33],-0.231
same,glycan array binding signal (z-score),[34],0.505
same,glycan array binding signal (z-score),[35],-0.392
same,glycan array binding signal (z-score),[36],-0.294
same,glycan array binding signal (z-score),[37],0.833
same,glycan array binding signal (z-score),[38],-0.082
same,glycan array binding signal (z-score),[39],0.771
same,glycan array binding signal (z-score),[40],-0.327
same,glycan array binding signal (z-score),[41],-0.163
same,glycan array binding signal (z-score),[42],-0.286
same,glycan array binding signal (z-score),[43],-0.275
same,glycan array binding signal (z-score),[44],-0.227
same,glycan array binding signal (z-score),[45],-0.246
